{"source": "PubChem BioAssay AID1347120", "about": "(National Center for Advancing Translational Sciences (NCATS), 2019)", "note": "“And” between values parts separate entries of the source, which are not always exact repeats. Equal values may be shown once. Hit rate of the full screen: of about 390,000 compounds, about 930 (0.24%) were called active. Inconclusive means that the source gave no clear call. Such entries were picked first, then a sample of the others. The call rests on the fitted dose curve; in most records, active means well fitted activation curve with a large enough effect; inconclusive means small, poorly fitted or top-dose-only effect; inactive means no such curve, though single readings can be large or run the other way. Where the call is inconclusive, the potency comes from a doubtful curve fit. Potency means the concentration at half of the fitted maximal effect; tags describe the fitted curve by direction and shape."}
{"test": "qHTS for Suppressors of FUS Proteinopathy: Primary screen using FUS-linked yeast assay; further: nearly all actives have a fitted effect of over 55% in size;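 on growth rescue (activation): plate controls were DMSO vehicle for no effect and reference control for full effect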", "conditions": "S. cerevisiae FUS-expressing, OD600, 24 h; Potency: growth rescue; growth rescue (activation): at 76.6 µM (top of the series)", "procedure,_shortened": "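FUS-expressing yeast, raffinose-pregrown, induced in 2% galactose minimal medium at OD 0.005; compounds in a dilution series, 24hr at 30C. Growth restoration read as absorbance at 600 nm. CP55940 positive control, DMSO negative.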"}
{"smiles": "O=C(CNC(=S)N(Cc1ccccc1)Cc1cccs1)NCc1ccc(F)cc1", "Potency": "inconclusive: 50.1 µM [activator, single point]"}
{"smiles": "CC(CCc1ccccc1)NC(=O)COC(=O)c1ccc(S(C)(=O)=O)c([N+](=O)[O-])c1", "note": "(centres undefined)", "Potency": "inactive"}
{"smiles": "CN(Cc1cn(Cc2cccc(C(F)(F)F)c2)nn1)C1CN(Cc2cn(Cc3cccc(C(F)(F)F)c3)nn2)S(=O)(=O)C1", "note": "(centres undefined)", "Potency": "inconclusive: 17.8 µM [activator, single point]"}
{"smiles": "Cc1cc2c(SCC(=O)NC3CCCCC3)ncnc2s1", "Potency": "inactive"}
{"smiles": "COc1ccc(C2c3sc(=O)[nH]c3SC3C4CCC(C4)C23)cc1OC", "note": "(centres undefined)", "Potency": "inconclusive: 35.5 µM [activator, single point]"}
{"smiles": "CC(C)(C)Cc1c(-c2ccc(Cl)cc2)nc2ccc(Br)cn12", "Potency": "inactive"}
{"smiles": "Nn1c(SCC(=O)N2CCN(S(=O)(=O)c3ccc(Cl)cc3)CC2)nnc1-c1cccs1", "Potency": "inconclusive: 50.1 µM [activator, single point]"}
{"smiles": "C[C@@H]1[C@@H](O)C[C@]2(C[C@@H](O)c3ccccc3O2)O[C@H]1c1ccccc1", "Potency": "inactive"}
{"smiles": "COc1cc(/C=C/C(=O)NC(C)C2CC3CCC2C3)cc(OC)c1OC", "note": "(centres undefined)", "Potency": "inconclusive: 15.8 µM [activator, partial curve]"}
{"smiles": "COC(=O)C1=C(C(=O)OC)[C@@H]2N(C)c3ccc(OC)cc3[C@@]23C[C@@H](C(=O)OC)N(C(=O)CC(C)C)C3=N1", "Potency": "inconclusive: 28.2 µM [activator, partial curve]"}
{"smiles": "Cc1ccc(/C=N/NC(=O)CSc2nc3ccccc3n2Cc2ccc(Cl)cc2)o1", "Potency": "inconclusive: 35.5 µM [activator, single point]"}
{"smiles": "NC(=O)c1nnn(-c2ccccc2)c1N", "Potency": "inconclusive: 3.16 µM [activator, partial curve, poor fit]"}
{"smiles": "CCOC(=O)N1CCC(NC(=O)c2ccc3c(c2)N=C(CC)c2ccccc2S3)CC1", "Potency": "inconclusive: 35.5 µM [activator, single point]"}
{"smiles": "CCOc1ccccc1NC(=O)C(OC(=O)c1ccc(O)cc1)c1ccccc1", "note": "(centres undefined)", "Potency": "inconclusive: 4.47 µM [activator, partial curve, poor fit]"}
{"smiles": "CCN(CC)C(=O)C1CCN(S(=O)(=O)c2c(C)noc2/C=C/c2cccc(C)c2)CC1", "Potency": "active: 20 µM"}
{"smiles": "O=C(NCc1ccco1)C1CCN(S(=O)(=O)N2CCC3(CC2)OCCO3)CC1", "Potency": "inconclusive: 12.6 µM [activator, partial curve]"}
{"smiles": "S=C(Nc1ccccc1)N1CCOCCOCCN(C(=S)Nc2ccccc2)CCOCCOCC1", "Potency": "inconclusive: 35.5 µM [activator, partial curve, poor fit]"}
{"smiles": "Cc1ccc(NC(=O)CN2CCSc3ccc(S(=O)(=O)N4CCCC4)cc32)cc1", "Potency": "inconclusive: 31.6 µM [activator, single point]"}
{"smiles": "CCCCN(CC)C(=O)c1cc2c(=O)n3cccc(C)c3nc2n1C", "Potency": "inactive"}
{"smiles": "CCOc1ccccc1Nc1nnc(-c2cc3cc(OC)ccc3oc2=O)s1", "Potency": "inactive"}
{"smiles": "Cc1cc(C)cc(NS(=O)(=O)c2ccc3[nH]cc(C(=O)N4CCc5ccccc54)c(=O)c3c2)c1", "Potency": "inconclusive: 50.1 µM [activator, single point]"}
{"smiles": "COc1ccc(N(CC(=O)Nc2cc(C)on2)S(=O)(=O)c2cc(C)ccc2C)cc1", "Potency": "active: 31.6 µM"}
{"smiles": "COc1cc(OC)cc(-c2c(C#Cc3ccsc3)c3cc(Br)ccc3n2C)c1", "Potency": "inconclusive: 14.1 µM [activator, partial curve]"}
{"smiles": "COc1cccc(NC(=O)C2CCC(CNS(=O)(=O)c3ccc4c(c3)CC(C)N4C(C)=O)CC2)c1", "note": "(centres undefined)", "Potency": "inconclusive: 20 µM [activator, single point] and inconclusive: 3.98 µM [activator, full curve]"}
{"smiles": "C=CCn1c(=O)c2ccccc2n2c(SCC(=O)Nc3sc(C(=O)N(CC)CC)c(C)c3C(=O)OCC)nnc12", "Potency": "inconclusive: 39.8 µM [activator, single point]"}
{"smiles": "COc1ccc(C2C(C(=O)Nc3ccc(Cl)cc3)CCC(=O)N2c2ccc(OC)cc2)cc1", "note": "(centres undefined)", "Potency": "inactive"}
{"smiles": "Nc1ccc(C(=O)c2ccc3c(c2)OCCO3)cc1N", "Potency": "inconclusive: 25.1 µM [activator, partial curve, poor fit]"}
{"smiles": "C[C@H](NC(=O)c1nc[nH]c1C(=O)N[C@H](C)c1ccccc1)C(=O)OCc1ccccc1", "Potency": "inconclusive: 35.5 µM [activator, single point]"}
{"smiles": "Cc1c(C(=O)N2CCN(CC(=O)Nc3ccccc3Cl)CC2)oc2ccc(Br)cc12", "Potency": "inactive"}
{"smiles": "CCn1cnc2sc(C(=O)N(Cc3ccc(N(C)C)cc3)Cc3ccco3)c(C)c2c1=O", "Potency": "inconclusive: 28.2 µM [activator, single point]"}
{"smiles": "CC(=O)N(Cc1cccnc1)c1nc2c(F)cc(F)cc2s1", "Potency": "inactive"}
{"smiles": "Cc1nn(-c2ccccc2)c(C)c1C(=O)OCC(=O)c1c(N)n(CC(C)C)c(=O)n(C)c1=O", "Potency": "inconclusive: 44.7 µM [activator, single point]"}
{"smiles": "CN(Cc1ccccc1)C(=O)c1ccc2c(c1)N(Cc1ccccc1F)C(=O)c1ccccc1S2(=O)=O", "Potency": "active: 31.6 µM"}
{"smiles": "CCN(CC)C(=O)CSc1nc2c(sc(=S)n2-c2ccccc2OC)c(=O)n1-c1ccccc1", "Potency": "inconclusive: 31.6 µM [activator, single point]"}
{"smiles": "CCCCNc1c(-c2cccc(-c3ccc(OC)cc3)c2)nc2cc(C)ccn12", "Potency": "inconclusive: 31.6 µM [activator, single point]"}
{"smiles": "COc1ccc(OC)c(NC(=O)Cn2cnc3ccc(S(=O)(=O)N4CCC(C)CC4)cc3c2=O)c1", "Potency": "inconclusive: 39.8 µM [activator, single point]"}
{"smiles": "CN(C(=O)CSc1nc2ccc(NC(=O)COc3ccc(Cl)cc3)cc2s1)c1ccccc1", "Potency": "inconclusive: 31.6 µM [activator, single point]"}
{"smiles": "Cc1ccc(S(=O)(=O)NC(=O)Nc2cc(C)ccc2F)cc1", "Potency": "inconclusive: 11.2 µM [activator, single point]"}
{"smiles": "CC(C)(C)c1ccc(C(=O)NCCc2csc3nc(-c4ccccc4F)nn23)cc1", "Potency": "inconclusive: 28.2 µM [activator, single point]"}
{"smiles": "COc1cc2nc(NCCC(C)C)n3nc(-c4ccccc4)nc3c2cc1OC", "Potency": "inactive"}
{"smiles": "COc1ccc(C(=O)Nc2ccc(-c3ccc(C)o3)cc2)cc1S(=O)(=O)N1CCOCC1", "growth rescue (activation)": "inconclusive: 71.2% [activator]"}
{"smiles": "Cn1c(=O)n(C)c2cc(NS(=O)(=O)c3ccc(F)cc3)ccc21", "Potency": "inconclusive: 1.78 µM [activator, full curve]"}
{"smiles": "COc1ccc(C2CC(=O)C3=C(C2)NC(C)=C(C#N)C3c2ccc(N(C)C)cc2)cc1", "note": "(centres undefined)", "Potency": "inconclusive: 22.4 µM [activator, partial curve]"}
{"smiles": "COc1cccc(C(=O)Nc2ccc3nc(SCC(=O)N4CCOCC4)sc3c2)c1", "Potency": "inconclusive: 25.1 µM [activator, single point]"}
{"smiles": "O=C(NCCCN1CCCCCC1)c1ccc(CS(=O)(=O)Cc2ccccc2F)o1", "Potency": "inactive"}
{"smiles": "CN1CC=C(c2ccccc2)N(c2ccccc2)C1=O", "Potency": "inactive"}
{"smiles": "CNC(=S)N1CCN(c2nc(-c3ccc(F)cc3)cs2)CC1", "Potency": "inactive"}
{"smiles": "COc1ccc(C(=O)N[C@H](C(=O)OCCCOC(=O)[C@@H](NC(=O)c2ccc(OC)cc2)C(C)C)C(C)C)cc1", "Potency": "inconclusive: 15.8 µM [activator, partial curve, poor fit]"}
{"smiles": "COc1ccccc1CNC(=O)C1Cc2cc(S(=O)(=O)N3CCCC3)ccc2N1C(C)=O", "note": "(centres undefined)", "Potency": "inconclusive: 44.7 µM [activator, single point]"}
{"smiles": "Cc1csc(NC(=O)CCCSc2nc3ccccc3s2)n1", "Potency": "inactive"}
{"smiles": "O=C(Nc1nc2ccc(S(=O)(=O)N3CCCC3)cc2s1)c1ccccn1", "Potency": "inactive"}
{"smiles": "COc1ccc2oc(=O)c(-c3csc(-c4ccc(Br)cc4)n3)cc2c1", "Potency": "inactive"}
{"smiles": "O=C(c1cccc(-n2cccc2)c1)N1CCN(S(=O)(=O)c2c(F)cccc2F)CC1", "Potency": "inconclusive: 28.2 µM [activator, single point]"}
{"smiles": "COc1cc(-c2nc(Cn3nnc(C(=O)Nc4ccccc4)c3C)c(C)o2)cc(OC)c1OC", "Potency": "inactive"}
{"smiles": "Cc1c(NC(=O)c2ccc(NC(=O)C3CC3)cc2)cccc1C(=O)O", "Potency": "inactive"}
{"smiles": "O=C(c1cccn1-c1nnc(N2CCCC2)s1)N1CCN(c2ccccc2)CC1", "Potency": "inactive"}
{"smiles": "O=C(Nc1cc2c(cc1C(=O)c1ccccc1)OCCO2)c1ccc(Br)cc1", "Potency": "inactive"}
{"smiles": "O=S(=O)(NCc1ccc(F)cc1)c1ccc(-c2cnc(C3CC3)o2)cc1", "Potency": "inconclusive: 35.5 µM [activator, single point]"}
{"smiles": "O=c1c(-c2ccccc2)nc2ccccc2n1C(CCc1ccccc1)c1nc2ccccc2[nH]1", "note": "(centres undefined)", "Potency": "inconclusive: 22.4 µM [activator, single point]"}
{"smiles": "CN1CCc2nc(SCc3ccc(C(C)(C)C)cc3)c(C#N)cc2C1", "Potency": "inconclusive: 28.2 µM [activator, partial curve, poor fit]"}
{"smiles": "CC(=O)c1cccc(NC(=O)C2(C)Cc3c(-c4cccc(C(F)(F)F)c4)ccnc3O2)c1", "note": "(centres undefined)", "Potency": "inconclusive: 31.6 µM [activator, single point]"}
{"smiles": "Cc1ccccc1CN1C(=O)/C(=C\\c2ccc(C(=O)NCCN3CCOCC3)cc2)Sc2ccccc21", "Potency": "inconclusive: 25.1 µM [activator, partial curve, poor fit]"}
{"smiles": "CCOc1ccc(NC(=S)N2C3CCCC2CC(NC(=O)C2CC2)C3)cc1", "note": "(centres undefined)", "Potency": "inactive"}
{"smiles": "O=C(OCc1ccccc1)N1CCN(C(c2ccnc3ccccc23)c2nnnn2-c2ccc3c(c2)OCCO3)CC1", "note": "(centres undefined)", "Potency": "inconclusive: 35.5 µM [activator, partial curve, poor fit]"}
